The campaign covered roughly 52,000 compounds. About 1,700 (3.3%) were called active. Rule as the data show it: active = survival mostly below about 52% (no sharp cut-off); inactive = mostly above about 56%. Some of the results follow.
Tested on: Wild type
Experiment: growth inhibition of S. aureus wild type versus tarO mutant, primary screen, teichoic acid synthesis inhibitors, RN4220, OD600 (AID 463173)
Conditions: S. aureus RN4220 wild type/DeltatarO growth, OD600, 18 h, stronger effect = lower value, screened at 18.75 µg/mL (by protocol)

SMILES | survival
CCCc1nn2c(=O)cc(COC(=O)c3ccc(NC(=O)COc4ccccc4)cc3)nc2s1 | inactive: 83%
CCn1c2c(c(=O)n3ncc(C(=O)N4CCN(c5ccc(Cl)cc5)CC4)c13)CN(Cc1ccc(OC)cc1)CC2 | inactive: 75%
CCC(Oc1ccc(F)cc1)C(=O)Nc1c(C(=O)c2ccc(C)cc2)oc2ccccc12 (stereo unspecified) | inactive: 76%
CCn1cc(C(=O)N2CCN(c3ccccc3)CC2)c(=O)c2cc(S(=O)(=O)N3CCOCC3)ccc21 | inactive: 82%
COc1ccc(C(=O)CSc2nnc(-c3ccoc3C)n2CC(C)C)cc1 | inactive: 102%
COc1ccc(-c2nc3scc(CCNS(=O)(=O)c4ccc(F)cc4C)n3n2)cc1 | inactive: 82%
c1cnc2c(c1)NC1(CCCCC1)N2 | inactive: 97%
COC(=O)c1cc2oc3ccccc3c2n1Cc1ccc(Cl)cc1 | inactive: 21%
O=C1CSC2(C(=O)N(Cc3cccc(F)c3)c3ccccc32)N1c1cccc(C(F)(F)F)c1 (stereo unspecified) | inactive: 83%
CC(C)COc1ccc(C(=O)N2CCN(CCc3ccncc3)CC2)cc1 | inactive: 88%
CCN(CC)CCNC(=O)c1cc2c(=O)n(C)c3cc(Cl)ccc3c2s1 | inactive: 88%
CCOC(=O)c1[nH]c(C)c(CCC(=O)NCc2ccc(CC)cc2)c1C | inactive: 83%
COc1cccc(CN2c3ccccc3-c3nc(SCC(=O)Nc4ccccc4Cl)ncc3S2(=O)=O)c1 | inactive: 66%
Cc1ccc(-c2ccc(=O)n(CCC(=O)NCCc3ccccc3)n2)cc1 | inactive: 92%
COc1ccc(Nc2cc(C(=O)NCCCN3CCN(c4ccccc4F)CC3)c3ccccc3n2)c(OC)c1 | inactive: 46%
COc1ccc(NC(=O)c2ccc3nc(C(C)C)oc3c2)cc1OC | inactive: 75%
COc1ccc(N(C)C(=O)c2cn(C)c(=O)c3cc(OC)c(OC)cc23)cc1 | inactive: 140%
Cc1ccc(Cn2c(CO)cnc2SCC(=O)Nc2ccc(C)c(Cl)c2)cc1 | active: -6%
CCN1CCc2c(sc(-n3cccc3)c2C(C)NC(=O)Nc2ccc(Br)cc2)C1 (stereo unspecified) | inactive: 73%

SMILES | survival
COc1ccc(NC(=O)Cn2cc(S(=O)(=O)c3ccccc3)c(=O)c3cc4c(cc32)OCO4)cc1 | inactive: 79%
COc1ccc(N(Cc2cccs2)C(=O)c2ccc(OC)c(Cl)c2)cc1 | inactive: 90%
Cc1cccc(N2CCN(C(=O)C3CCN(S(=O)(=O)c4c(C)noc4C)CC3)CC2C)c1 (stereo unspecified) | inactive: 99%
CCCC(=O)OCc1cnc(C)c2oc(=O)c(C(=O)Nc3cccc(C(F)(F)F)c3)cc12 | inactive: 76%
CCC(=O)Nc1ccccc1-c1nc2ccccc2n(CC(=O)Nc2ccccc2OC)c1=O | inactive: 84%
CCCS(=O)(=O)c1c(S(=O)(=O)CCC)c2cc(C(C)(C)C)ccn2c1C(=O)c1ccccc1 | inactive: 102%
Cc1c(C(=O)Nc2ccccc2)sc2nc(-c3cc4cc(Cl)ccc4oc3=O)[nH]c(=O)c12 | inactive: 86%
COc1cccc(N2CCN(C(=O)C3CCN(S(=O)(=O)c4c(C)noc4/C=C/c4ccccc4F)CC3)CC2)c1 | inactive: 73%
COC(=O)c1ccc(NC(=O)CC2C(=O)N(c3ccccc3)C(=O)N2Cc2ccc(F)cc2)cc1 (stereo unspecified) | active: 14%
CC1CCN(C(=O)C(C)Sc2nnc3c(n2)[nH]c2ccccc23)CC1 (stereo unspecified) | inactive: 106%
CCc1ccccc1N/C=C(\C#N)c1nc2ccccc2[nH]1 | inactive: 140%
Cc1ccccc1C(=O)Nc1ccc2nc(N3CCCCC3)cc(C)c2c1 | inactive: 62%
CC(C)(C)C(=O)NCC(c1ccc2c(c1)OCO2)N1CCOCC1 (stereo unspecified) | active: -2%
O=C(CSc1nnc(-c2cccs2)o1)Oc1ccccc1Cl | inactive: 84%
COc1cccc(N2CCN(C(=O)c3cc4c(s3)-c3ccccc3OC4)CC2)c1 | inactive: 103%
CCN(CC)C(=O)c1sc2c(c1C)c(=O)n(CCc1ccccc1)c(=O)n2Cc1cc(C)ccc1C | inactive: 88%
O=C(Cn1ccn(-c2ccc(F)cc2)c(=O)c1=O)Nc1ccc(F)cc1 | inactive: 84%
O=C(NCCc1ccc(Cl)cc1)c1ccc(CS(=O)(=O)c2ccc(Cl)cc2)o1 | inactive: 71%
Cc1cccc(C)c1NC(=O)C(NS(=O)(=O)c1cccs1)c1ccccc1 (stereo unspecified) | inactive: 93%

SMILES | survival
O=C(Cn1ncc2c3ccccc3n(Cc3cccc(Cl)c3)c2c1=O)Nc1ccc(F)cc1F | inactive: 89%
COc1ccc(CC(NC(C)=O)C(=O)NC2CCN(c3nc(OC)nc(OC)n3)CC2)cc1 (stereo unspecified) | inactive: 108%
CC(C)c1ccc(NC2=NCC(=O)N2Cc2ccccc2)cc1 | inactive: 111%
CCc1nnc(NC(=O)CSC2=NC(=O)C(NC(C)=O)C(=O)N2)s1 (stereo unspecified) | inactive: 107%
COc1cc(CNC(=O)c2ccc3c(c2)c(C)c(C)n3Cc2cccc(C)c2)cc(OC)c1OC | inactive: 135%
CCN(Cc1ccccc1)Cc1nnnn1CCOC | inactive: 97%
CCOc1ccc(NC(=O)c2cc(S(=O)(=O)N3CCN(c4ccccc4F)CC3)ccc2F)cc1 | inactive: 73%
Cc1ccc2[nH]c(=O)c3cc(C(=O)NC4CCC(C)CC4)sc3c2c1 (stereo unspecified) | inactive: 69%
CCCCN(C)C(=O)CSc1nc2ccccc2nc1Cc1ccc(C)cc1 | active: 0%
COc1ccc(-n2c(=O)c3c4c(sc3n(C)c2=O)CN(C(C)=O)CC4)cc1 | inactive: 75%
O=c1cc(-c2ccccc2)n2c(SCc3ccccc3Cl)nnc2[nH]1 | inactive: 66%
COc1ccccc1CNC(=O)C(=O)NCC(c1cccs1)S(=O)(=O)c1cccs1 (stereo unspecified) | inactive: 72%
CCSc1nnc2n(-c3ccccc3)c(=O)c3c4c(sc3n12)CCCC4 | inactive: 108%
Cc1ccc2oc(C(=O)N(Cc3sccc3C)C3CCS(=O)(=O)C3)c(C)c2c1 (stereo unspecified) | inactive: 76%
CCOc1ccc(Nc2c(S(=O)(=O)c3ccc(C)cc3)cnc3ccc(F)cc23)cc1 | inactive: 64%
COc1cccc2c1cc1c(=O)n(CC(=O)NCc3ccco3)nc(C)n12 | inactive: 85%
COc1ccccc1C(=O)Nc1nnc2n1CCS2 | inactive: 68%
Cc1c(Cl)cccc1NC(=O)CSc1nc(=O)n(Cc2ccco2)c2c1CCC2 | inactive: 120%

— PubChem BioAssay AID463173 (ICCB-Longwood Screening Facility, Harvard Medical School, 2010)
